32 sequences from PMC12820563 can be followed below.

This is one part of the list. The list includes weakly bound sequences.

The experiment deals with T1, MBP-FoxP3dN (UniProt Q99JB6).
T1 sequence: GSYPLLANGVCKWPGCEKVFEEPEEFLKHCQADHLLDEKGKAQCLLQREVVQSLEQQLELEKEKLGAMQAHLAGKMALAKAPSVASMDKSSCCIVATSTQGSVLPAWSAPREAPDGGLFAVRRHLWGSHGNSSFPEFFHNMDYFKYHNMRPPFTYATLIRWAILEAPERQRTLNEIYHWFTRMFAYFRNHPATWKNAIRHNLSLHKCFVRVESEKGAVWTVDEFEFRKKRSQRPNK
As to the kind of experiment: PD-seq (MBP pull-down with sequencing). Conditions: 20 mM Tris-HCl pH 7.5, 100 mM NaCl, 1.5 mM MgCl2, 0.4 uM protein, 0.1 uM dsDNA library, 30 min, room temperature, amylose pull-down; high values mean tight binding; double strand, one strand shown.
As for “GATGATTGTTCTCCCAGCTGATGAATTAAGCGAATCGAGTAAACAAATTTTCCTAATCTTTCTGTTCAAGCGCCATCTAC”, the binding signal (RPM ratio (pull-down/input)) is 0.343.
As for “GATGATTGTTCTCCCAGCTGATGAATTGGAGGGCTCGAGTAAACAAATTTTCCTAATCTTTCTGTTCAAGCGCCATCTAC”, the binding signal (RPM ratio (pull-down/input)) is 0.267.
For the sequence “GATGATTGTTCTCCCAGCTGATGAATTTTTATTTTCGAGTAAACAAATTTTCCTAATCTTTCTGTTCAAGCGCCATCTAC”, the binding signal (RPM ratio (pull-down/input)) is 0.838.
Turning to “GATGATTGTTCTCCCAGCTGATGAATTCTTGACATCGAGTAAACAAATTTTCCTAATCTTTCTGTTCAAGCGCCATCTAC”, the binding signal (RPM ratio (pull-down/input)) turned out to be 0.383.
With “GATGATTGTTCTCCCAGCTGATGAATTTGGAGGCTCGAGTAAACAAATTTTCCTAATCTTTCTGTTCAAGCGCCATCTAC”, the binding signal (RPM ratio (pull-down/input)) was determined as 0.462.
For “GATGATTGTTCTCCCAGCTGATGAATTAGAGATGTCGAGTAAACAAATTTTCCTAATCTTTCTGTTCAAGCGCCATCTAC”, the binding signal (RPM ratio (pull-down/input)) was determined as 0.424.
To “GATGATTGTTCTCCCAGCTGATGAATTCTGGAACTCGAGTAAACAAATTTTCCTAATCTTTCTGTTCAAGCGCCATCTAC” belongs 0.199; to “GATGATTGTTCTCCCAGCTGATGAATTCTTTATCTCGAGTAAACAAATTTTCCTAATCTTTCTGTTCAAGCGCCATCTAC”, 0.322.
On to “GATGATTGTTCTCCCAGCTGATGAATTCCATTATTCGAGTAAACAAATTTTCCTAATCTTTCTGTTCAAGCGCCATCTAC”, for which the binding signal (RPM ratio (pull-down/input)) came to 0.887.
To “GATGATTGTTCTCCCAGCTGATGAATTCTGGCATTCGAGTAAACAAATTTTCCTAATCTTTCTGTTCAAGCGCCATCTAC” belongs 4.83; to “GATGATTGTTCTCCCAGCTGATGAATTGTCAGTGTCGAGTAAACAAATTTTCCTAATCTTTCTGTTCAAGCGCCATCTAC”, 0.504; to “GATGATTGTTCTCCCAGCTGATGAATTGAAACATTCGAGTAAACAAATTTTCCTAATCTTTCTGTTCAAGCGCCATCTAC”, 0.815.
In the case of “GATGATTGTTCTCCCAGCTGATGAATTGGGCGGATCGAGTAAACAAATTTTCCTAATCTTTCTGTTCAAGCGCCATCTAC” it was 0.365; in that of “GATGATTGTTCTCCCAGCTGATGAATTTGTCCCTTCGAGTAAACAAATTTTCCTAATCTTTCTGTTCAAGCGCCATCTAC”, 3.57.
In the case of “GATGATTGTTCTCCCAGCTGATGAATTCTTTGGCTCGAGTAAACAAATTTTCCTAATCTTTCTGTTCAAGCGCCATCTAC” it was 0.217.
In the case of “GATGATTGTTCTCCCAGCTGATGAATTCTTGATCTCGAGTAAACAAATTTTCCTAATCTTTCTGTTCAAGCGCCATCTAC”, the binding signal (RPM ratio (pull-down/input)) is 0.282.
In the case of “GATGATTGTTCTCCCAGCTGATGAATTGAGTTTCTCGAGTAAACAAATTTTCCTAATCTTTCTGTTCAAGCGCCATCTAC” it was 1.19.
Turning to “GATGATTGTTCTCCCAGCTGATGAATTCCGAGGCTCGAGTAAACAAATTTTCCTAATCTTTCTGTTCAAGCGCCATCTAC”, the binding signal (RPM ratio (pull-down/input)) turned out to be 0.327.
For the sequence “GATGATTGTTCTCCCAGCTGATGAATTCATAGTTTCGAGTAAACAAATTTTCCTAATCTTTCTGTTCAAGCGCCATCTAC”, the binding signal (RPM ratio (pull-down/input)) turned out to be 0.677.
To “GATGATTGTTCTCCCAGCTGATGAATTGTCGCACTCGAGTAAACAAATTTTCCTAATCTTTCTGTTCAAGCGCCATCTAC” belongs 0.879; to “GATGATTGTTCTCCCAGCTGATGAATTAACGGTTTCGAGTAAACAAATTTTCCTAATCTTTCTGTTCAAGCGCCATCTAC”, 0.457; to “GATGATTGTTCTCCCAGCTGATGAATTGTTGTCGTCGAGTAAACAAATTTTCCTAATCTTTCTGTTCAAGCGCCATCTAC”, 5.49.
“GATGATTGTTCTCCCAGCTGATGAATTTGGGTCGTCGAGTAAACAAATTTTCCTAATCTTTCTGTTCAAGCGCCATCTAC”: the binding signal (RPM ratio (pull-down/input)) amounted to 0.772.
“GATGATTGTTCTCCCAGCTGATGAATTAACCCTGTCGAGTAAACAAATTTTCCTAATCTTTCTGTTCAAGCGCCATCTAC”: the binding signal (RPM ratio (pull-down/input)) stood at 0.233.
In the case of “GATGATTGTTCTCCCAGCTGATGAATTTCTAAGTTCGAGTAAACAAATTTTCCTAATCTTTCTGTTCAAGCGCCATCTAC” it was 0.256; in that of “GATGATTGTTCTCCCAGCTGATGAATTTTAGCTGTCGAGTAAACAAATTTTCCTAATCTTTCTGTTCAAGCGCCATCTAC”, 0.405.
Turning to “GATGATTGTTCTCCCAGCTGATGAATTTCGTCCTTCGAGTAAACAAATTTTCCTAATCTTTCTGTTCAAGCGCCATCTAC”, the binding signal (RPM ratio (pull-down/input)) is 0.514.
To “GATGATTGTTCTCCCAGCTGATGAATTCTCGGTATCGAGTAAACAAATTTTCCTAATCTTTCTGTTCAAGCGCCATCTAC” belongs 0.385; to “GATGATTGTTCTCCCAGCTGATGAATTGTGGGTATCGAGTAAACAAATTTTCCTAATCTTTCTGTTCAAGCGCCATCTAC”, 1.18.
As to “GATGATTGTTCTCCCAGCTGATGAATTCGGCGGGTCGAGTAAACAAATTTTCCTAATCTTTCTGTTCAAGCGCCATCTAC”, the binding signal (RPM ratio (pull-down/input)) is 0.523.
Regarding “GATGATTGTTCTCCCAGCTGATGAATTACCATGTTCGAGTAAACAAATTTTCCTAATCTTTCTGTTCAAGCGCCATCTAC”, the binding signal (RPM ratio (pull-down/input)) turned out to be 0.514.
With “GATGATTGTTCTCCCAGCTGATGAATTTTACGGTTCGAGTAAACAAATTTTCCTAATCTTTCTGTTCAAGCGCCATCTAC”, the binding signal (RPM ratio (pull-down/input)) was determined as 0.338.
